In PubChem BioAssay AID504333 (National Center for Advancing Translational Sciences (NCATS), 2011):
The campaign covered roughly 360,000 compounds. About 16,000 (4.4%) were called active. This list was built around the results that the source calls inconclusive (neither active nor inactive); the mix of calls is not that of the screen. Calls follow the shape of the dose curve; as a rule, active = well fitted inhibition curve with a large enough effect; inconclusive = small, poorly fitted or top-dose-only effect; inactive = no such curve, though single readings can be large or run the other way. Potencies of inconclusive entries are doubtful fits and often do not repeat. Some structures have more than one record in an assay (separate samples or runs), and their calls can disagree.

The compounds below were run against Bromodomain adjacent to zinc finger domain protein 2B (Homo sapiens) (UniProt Q9UIF8) (assay: qHTS Assay for Inhibitors of BAZ2B). Conditions: AlphaScreen BAZ2B-H3K14Ac peptide displacement; series mostly up to 114 µM.
Chain of UniProt Q9UIF8 (Q9UIF8 whole entry, looked up, the tested form may be a part): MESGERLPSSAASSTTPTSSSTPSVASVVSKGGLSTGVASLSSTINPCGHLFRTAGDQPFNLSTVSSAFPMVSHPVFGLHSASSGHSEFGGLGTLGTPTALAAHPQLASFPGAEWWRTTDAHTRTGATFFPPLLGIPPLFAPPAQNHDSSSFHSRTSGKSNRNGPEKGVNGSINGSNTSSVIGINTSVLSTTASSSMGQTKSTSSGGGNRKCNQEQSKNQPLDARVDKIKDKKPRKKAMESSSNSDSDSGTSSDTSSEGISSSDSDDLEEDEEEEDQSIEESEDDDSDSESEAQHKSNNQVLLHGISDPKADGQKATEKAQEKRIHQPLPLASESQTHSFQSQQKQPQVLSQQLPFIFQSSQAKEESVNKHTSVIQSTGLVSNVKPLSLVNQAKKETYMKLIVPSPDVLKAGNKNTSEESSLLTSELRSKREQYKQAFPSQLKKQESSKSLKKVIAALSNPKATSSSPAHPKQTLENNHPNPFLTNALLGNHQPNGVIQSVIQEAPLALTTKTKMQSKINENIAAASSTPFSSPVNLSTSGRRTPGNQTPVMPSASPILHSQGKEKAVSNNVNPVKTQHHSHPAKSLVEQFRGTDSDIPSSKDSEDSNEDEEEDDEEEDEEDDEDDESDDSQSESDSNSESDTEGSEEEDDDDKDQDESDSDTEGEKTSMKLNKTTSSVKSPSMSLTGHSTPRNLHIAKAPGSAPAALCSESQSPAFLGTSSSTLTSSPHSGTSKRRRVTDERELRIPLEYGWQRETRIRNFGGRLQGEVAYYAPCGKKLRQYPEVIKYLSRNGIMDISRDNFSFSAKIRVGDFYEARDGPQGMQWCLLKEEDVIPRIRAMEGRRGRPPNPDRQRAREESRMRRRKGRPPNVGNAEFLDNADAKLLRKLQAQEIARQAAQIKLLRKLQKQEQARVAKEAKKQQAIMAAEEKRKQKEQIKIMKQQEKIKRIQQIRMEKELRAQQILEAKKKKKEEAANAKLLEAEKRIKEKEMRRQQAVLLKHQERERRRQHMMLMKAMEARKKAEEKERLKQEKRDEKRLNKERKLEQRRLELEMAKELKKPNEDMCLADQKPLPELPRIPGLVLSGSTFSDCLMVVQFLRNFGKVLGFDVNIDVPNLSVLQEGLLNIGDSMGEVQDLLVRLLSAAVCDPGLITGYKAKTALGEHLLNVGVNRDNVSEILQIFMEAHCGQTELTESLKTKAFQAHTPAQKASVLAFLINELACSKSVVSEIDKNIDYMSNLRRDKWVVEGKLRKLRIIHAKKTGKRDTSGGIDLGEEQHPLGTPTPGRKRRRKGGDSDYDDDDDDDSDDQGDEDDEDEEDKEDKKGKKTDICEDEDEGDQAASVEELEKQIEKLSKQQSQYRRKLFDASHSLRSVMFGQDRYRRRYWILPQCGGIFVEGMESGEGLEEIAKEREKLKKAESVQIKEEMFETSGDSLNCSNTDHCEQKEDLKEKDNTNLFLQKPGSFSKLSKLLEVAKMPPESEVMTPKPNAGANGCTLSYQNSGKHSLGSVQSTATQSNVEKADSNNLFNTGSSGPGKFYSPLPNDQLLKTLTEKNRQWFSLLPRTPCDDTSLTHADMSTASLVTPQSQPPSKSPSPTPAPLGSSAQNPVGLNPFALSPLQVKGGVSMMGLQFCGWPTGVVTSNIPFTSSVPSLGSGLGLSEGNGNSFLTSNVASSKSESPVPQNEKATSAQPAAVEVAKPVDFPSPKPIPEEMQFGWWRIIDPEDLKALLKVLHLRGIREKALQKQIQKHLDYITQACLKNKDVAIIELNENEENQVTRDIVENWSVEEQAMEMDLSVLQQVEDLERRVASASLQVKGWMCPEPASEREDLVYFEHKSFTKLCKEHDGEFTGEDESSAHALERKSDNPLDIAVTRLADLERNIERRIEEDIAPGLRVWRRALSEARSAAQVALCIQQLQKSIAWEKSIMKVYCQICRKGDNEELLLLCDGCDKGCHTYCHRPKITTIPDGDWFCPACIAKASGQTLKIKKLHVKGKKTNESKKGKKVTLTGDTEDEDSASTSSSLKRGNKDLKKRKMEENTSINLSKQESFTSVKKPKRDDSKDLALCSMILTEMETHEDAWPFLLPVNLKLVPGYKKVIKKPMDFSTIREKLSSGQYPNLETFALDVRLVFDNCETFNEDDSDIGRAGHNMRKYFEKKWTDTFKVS
Method in brief: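 In this displacement format the biotinylated H3(5-23) peptide acetylated at Lys14 serves as ligand at 50 nM, with BAZ2B at 50 nM in PBS pH 7.4 containing 0.01% Tween-20. Donor and acceptor beads are 10 ug/mL final.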
Also: nearly all actives have a fitted effect of over 60% in size.
Potency is read from the fitted curve at half-maximal effect; tags tell the direction and shape of the fitted curve.

Structure (SMILES)	Potency
O=C1CSC(c2ccccc2)N1CC(O)c1ccc([N+](=O)[O-])cc1 (stereo unspecified)	inactive
O=C(CCCN1C(=O)/C(=C/c2ccccc2)SC1=S)Nc1ccc(C(=O)O)c(O)c1	inconclusive: 31.6 µM [inhibitor, partial curve]
O=C(NCc1cccnc1)Nc1ccc(F)cc1F	inactive
CCOC(=O)N1CCN(C(=O)CCn2c(=S)[nH]c3ccsc3c2=O)CC1	inconclusive: 89.1 µM [inhibitor, single point]
COc1ccccc1OCCNc1cc(N2CCCCC2)ccc1[N+](=O)[O-]	inconclusive: 7.94 µM [inhibitor, full curve]
O=C(NCCCN1CCOCC1)c1cccc(S(=O)(=O)N2CCc3ccccc3C2)c1	inconclusive: 14.1 µM [inhibitor, full curve, poor fit]
Cc1ccc(-n2ccnc(NCCc3ccc(S(N)(=O)=O)cc3)c2=O)c(C)c1	inconclusive: 39.8 µM [inhibitor, full curve, poor fit]
NC(=O)C1CCN(c2nc(-c3ccc(F)cc3)cs2)CC1	active: 56.2 µM
Cc1ccc(C)c(S(=O)(=O)N2CCN(C(=O)c3cccn3C)CC2)c1	inconclusive: 79.4 µM [inhibitor, single point]
CCOc1ccc(NC(=O)CC2C(=O)N(c3ccccc3)C(=O)N2Cc2ccco2)cc1 (stereo unspecified)	inconclusive: 79.4 µM [inhibitor, single point]
COc1cc(NC(=O)C(=O)NCCN2CCNCC2)c(OC)cc1Cl	inconclusive: 31.6 µM [inhibitor, full curve, poor fit]
CC(=O)c1cc(-c2ccccc2)n(CCC(=O)Nc2ccc(C(C)C)cc2)c1C	inconclusive: 50.1 µM [inhibitor, partial curve]
COc1ccc(OC)c(NC(=O)c2nnn(CC(=O)Nc3ccc4c(c3)OCO4)c2N)c1	inconclusive: 89.1 µM [inhibitor, single point]
O=Cc1ccc(N2N=C(c3ccccc3)CC2c2ccccc2)cc1 (stereo unspecified)	inactive
COc1ccc(CN2CCCC(C(=O)c3ccc(SC)cc3)C2)cc1Cn1cccn1 (stereo unspecified)	inconclusive: 25.1 µM [inhibitor, full curve]
CCn1c(CSc2nnc3ccccn23)nc2cc(C(=O)O)ccc21	inactive
COc1ccc(-c2cc(C(F)(F)F)n3nc(C(=O)O)c(Cl)c3n2)cc1OC	inconclusive: 89.1 µM [inhibitor, single point]
COc1ccc(Sc2ccc(/C=C3\C(=O)NN(c4ccccc4)C3=O)o2)cc1	active: 8.91 µM
Cc1ccc2cc(CN(CCCN(C)C)C(=S)NCc3ccccc3)c(=O)[nH]c2c1C	inconclusive: 100 µM [inhibitor, partial curve]
C[N+](C)(CC#Cc1ccccc1)CC(=O)c1ccc(Cl)cc1	inconclusive: 89.1 µM [inhibitor, single point]
CCn1c(=O)c(=O)[nH]c2cc(C(=O)NCC3CCCCC3)ccc21	inactive
Cc1[nH]c(C)c(S(=O)(=O)Nc2ccc(OC(F)(F)F)cc2)c1C(=O)N1CCCCC1	inconclusive: 79.4 µM [inhibitor, single point]
Cc1[nH]n(-c2ccccc2)c(=O)c1/C=N/c1ccccn1	inconclusive: 89.1 µM [inhibitor, single point]
Cc1cccc(C)c1OCC(=O)N/N=C/c1cccn1C	inconclusive: 79.4 µM [inhibitor, single point]

Structure (SMILES)	Potency
CCN(CC(=O)NCc1cccs1)C(=O)c1ccc(-c2cccc(C(F)(F)F)c2)o1	inconclusive: 44.7 µM [inhibitor, partial curve]
COc1cc(/C=N/NC(=Nc2ccc(C)cc2)c2nc3ccccc3s2)ccc1O	active: 44.7 µM
CN(C)S(=O)(=O)c1ccc(C(=O)NNC(=O)C2COc3ccccc3O2)cc1 (stereo unspecified)	inactive
O=C(NC1CCCCC1)c1ccc(-c2ccccc2[N+](=O)[O-])o1	inconclusive: 44.7 µM [inhibitor, partial curve]
CCC(NC(C)C)C(O)c1ccc(O)c(O)c1 (stereo unspecified)	inconclusive: 79.4 µM [inhibitor, single point]
O=C(OCC(=O)c1ccc(Cl)s1)c1ccccn1	active: 56.2 µM
CC1C/C(=N\NC(=S)NC(C)C)CC(C)(C)C1 (stereo unspecified)	inconclusive: 44.7 µM [inhibitor, partial curve]
CCNC(=S)N(Cc1ccco1)Cc1cc2cc(OCC)ccc2[nH]c1=O	inconclusive: 50.1 µM [inhibitor, partial curve]
O=C(NCc1ccccc1)C(c1ccco1)N(C(=O)c1ccccn1)c1ccc(F)cc1 (stereo unspecified)	inconclusive: 89.1 µM [inhibitor, single point]
N=c1n(CCN2CCCC2)c2ccccc2n1CC(O)c1ccco1 (stereo unspecified)	inconclusive: 89.1 µM [inhibitor, single point]
COc1ccc(/C=N/OCC(=O)Nc2ccc3c(c2)OCO3)c(OC)c1	inconclusive: 70.8 µM [inhibitor, single point]
O=C(COC(=O)CCCc1nc2ccccc2s1)NC(=O)NCc1ccco1	active: 56.2 µM
CCOC(=O)c1c(C)n(C)c2ccc(OCC(N)=O)cc12	inactive
Cc1[nH]c2ccc(C(=O)NCCN3CCOCC3)cc2c1C	inconclusive: 79.4 µM [inhibitor, single point]
N#CC1=C(N)C(C#N)(C#N)C2(C(=O)Nc3ccccc32)C2CCCC=C12 (stereo unspecified)	inconclusive: 89.1 µM [inhibitor, single point]
Cc1ccc(C(C)C)cc1OCC(=O)Nc1ccc(N2CCCCC2)cc1	active: 28.2 µM
Cc1nc(NCCCn2ccnc2)c2oc3ccccc3c2n1	inconclusive: 89.1 µM [inhibitor, single point]
Cc1ccccc1NC(=O)CSc1nc2ccc(NC(=O)CCc3ccccc3)cc2s1	inactive
CCN(C(=O)COC(=O)c1cc(NS(=O)(=O)c2ccc(Cl)c([N+](=O)[O-])c2)ccc1O)C1CCCCC1	inconclusive: 70.8 µM [inhibitor, single point]
COc1cc(/C=C(\C#N)c2nc3ccccc3s2)cc([N+](=O)[O-])c1O	active: 12.6 µM
Cc1ccc(C(=O)Nc2cccc([N+](=O)[O-])c2)cc1S(=O)(=O)Nc1ccc(NC(=O)c2ccccc2)cc1	inactive
O=C(CCCOc1ccccc1)N1CCCCC1	inactive
O=S(=O)(NCc1ccco1)c1ccc2ccccc2c1	inconclusive: 79.4 µM [inhibitor, single point]
CCOC(=O)c1ccc(-c2c(-c3ccc4c(c3)OCO4)noc2C)cc1F	inactive

Structure (SMILES)	Potency
Cc1ccc(-n2nc(C)c3c(C)cc(=O)n(CC(=O)Nc4cc(Cl)ccc4C)c32)cc1	inactive
CC(=O)c1cc(-c2ccccc2)n(CC(=O)NC2CCCC2)c1C	inconclusive: 89.1 µM [inhibitor, single point]
COC(=O)C1C(=O)C2=C(CC1C)NC(C)=C(C(=O)OC(C)C)C2c1ccc(C)o1 (stereo unspecified)	inconclusive: 89.1 µM [inhibitor, single point]
O=[N+]([O-])c1cc(S(=O)(=O)Nc2cccc(Cl)c2)ccc1N/N=C/c1ccc(N2CCOCC2)cc1	inconclusive: 50.1 µM [inhibitor, partial curve]
CC(C)(C)CC(=O)OCC(=O)Nc1cc(C(C)(C)C)nn1-c1ccccc1	inactive
CCOC(=O)c1cc(-c2ccc(N3CCOCC3)cc2)nn1-c1ccccc1	inconclusive: 50.1 µM [inhibitor, partial curve]
Cn1cc(/C=N/NC(=O)COc2ccccc2[N+](=O)[O-])c2ccccc21	inactive
CSCCC(C(=O)NC1=NCCS1)N1C(=O)c2ccccc2C1=O (stereo unspecified)	inconclusive: 5.62 µM [inhibitor, full curve]
CC(C)C(=O)NC(=S)/C=C1/N(C)c2ccccc2C1(C)C	active: 31.6 µM
COc1ccc(CCC(=O)N2CCCC(Nc3ccc(OC)cc3)C2)cc1 (stereo unspecified)	inconclusive: 56.2 µM [inhibitor, partial curve]
COc1ccc2c(c1)-c1c(sn(-c3ccc(OC)c(OC)c3)c1=S)C(C)(C)N2	active: 10 µM
Cc1ccc(NC(=O)c2cc(N3C(=O)C=CC3=O)ccc2N2CCOCC2)cc1Cl	active: 50.1 µM
COc1ccc(CNCCC(c2ccc(C)cc2)c2ccco2)cc1 (stereo unspecified)	active: 79.4 µM
CCOC(=O)c1nc(Nc2ccc(Nc3ccccc3)cc2)c2ccccc2n1	active: 15.8 µM
CC(=O)c1c(C)[nH]c(C(=O)N2CCCCCC2)c1C	active: 50.1 µM
Cc1ccc(NC(=O)C2CCCN(C(=O)c3cnn(-c4ccccc4)c3-n3cccc3)C2)cc1 (stereo unspecified)	inactive
CC(C)C1CC(CCNCc2ccc(N(C)C)cc2)(c2ccccc2)CCO1 (stereo unspecified)	active: 25.1 µM
Cc1cc(OCC(=O)N(Cc2ccc(N(C)C)cc2)Cc2ccco2)cc(C)c1Cl	active: 10 µM
COc1ccc(C)cc1NC(=O)Nc1ccc(C(=O)N2CCCC2)cc1	inconclusive: 89.1 µM [inhibitor, single point]
CN(Cc1ccccc1)c1c([N+](=O)[O-])c(=O)n(C)c2ccccc12	inconclusive: 35.5 µM [inhibitor, full curve, poor fit]
CCOC(=O)C1CCCN(CC(=O)NC2CC2)C1 (stereo unspecified)	active: 31.6 µM
CN1CCN(C(=O)C2CC(c3ccc(F)cc3)=NO2)CC1 (stereo unspecified)	inconclusive: 89.1 µM [inhibitor, single point]
COc1cc(-n2nc(C)c3c2OC(N)=C(C#N)C3c2ccccc2)c(Cl)c(Br)c1O (stereo unspecified)	active: 44.7 µM
